Measurements published in PubChem BioAssay AID1460 (National Center for Advancing Translational Sciences (NCATS), 2008).
Several values for one entry are separate records, joined by “and”; a condition that tells them apart may be missing. Equal values may be shown once. Hit rate of the full screen: of about 270,000 compounds, about 5,800 (2.1%) were called active. The inconclusive results got no clear call from the source; some entries with a clear call stand among them for comparison. Calls follow the shape of the dose curve; as a rule, active = well fitted inhibition curve with a large enough effect; inconclusive = small, poorly fitted or top-dose-only effect; inactive = flat fitted curve, though single readings scatter. Where the call is inconclusive, the potency comes from a doubtful curve fit.

Biological target: Microtubule-associated protein tau (Homo sapiens) (UniProt P10636)
Chain of UniProt P10636 (P10636 whole entry, looked up): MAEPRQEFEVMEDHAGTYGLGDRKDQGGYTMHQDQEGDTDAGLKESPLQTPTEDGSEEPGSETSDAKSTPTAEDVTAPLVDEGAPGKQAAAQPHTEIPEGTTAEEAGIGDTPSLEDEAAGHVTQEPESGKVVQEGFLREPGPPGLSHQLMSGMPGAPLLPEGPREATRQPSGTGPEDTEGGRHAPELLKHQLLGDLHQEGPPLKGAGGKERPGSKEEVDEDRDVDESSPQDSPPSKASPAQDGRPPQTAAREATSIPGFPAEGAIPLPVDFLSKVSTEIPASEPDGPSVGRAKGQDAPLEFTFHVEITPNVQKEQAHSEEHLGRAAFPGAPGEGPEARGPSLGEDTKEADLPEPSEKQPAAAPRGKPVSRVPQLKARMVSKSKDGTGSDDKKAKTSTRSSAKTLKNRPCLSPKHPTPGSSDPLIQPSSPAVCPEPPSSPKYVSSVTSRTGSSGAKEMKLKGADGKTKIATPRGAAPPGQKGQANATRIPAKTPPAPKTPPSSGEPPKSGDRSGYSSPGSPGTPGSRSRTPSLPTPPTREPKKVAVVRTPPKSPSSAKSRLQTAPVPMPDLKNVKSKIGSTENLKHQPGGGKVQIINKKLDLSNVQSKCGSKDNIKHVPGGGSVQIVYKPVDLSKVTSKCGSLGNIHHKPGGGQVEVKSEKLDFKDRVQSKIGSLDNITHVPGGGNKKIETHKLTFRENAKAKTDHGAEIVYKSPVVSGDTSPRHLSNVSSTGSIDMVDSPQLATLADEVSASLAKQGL
Test: qHTS for Inhibitors of Tau Fibril Formation, Thioflavin T Binding; also: nearly all actives have a fitted effect of over 55% in size
Conditions: recombinant tau K18 P301L (four-repeat tau fragment), heparin-induced fibrillization, ThT fluorescence; series mostly up to 57.4 µM; activity, negative = inhibition: at the top concentration
Procedure, shortened: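 In this qHTS, human K18 P301L tau is incubated with compound and heparin for 6 hr at 37 C, and Thioflavin T fluorescence then reports fibril load.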
% is scaled to controls: 0 for no effect and ±100 for the full control effect; potency is read from the fitted curve at half-maximal effect; tags tell the direction and shape of the fitted curve.

| Structure (SMILES) | Potency | activity, negative = inhibition |
| --- | --- | --- |
| Cc1ccc(NC(=O)c2ccc(C(C)(C)C)cc2)cc1[N+](=O)[O-] | inconclusive: 25.1 µM [inhibitor, single point] |  |
| COC(=O)/C=C/C(=O)N1CCN(c2ccccc2)CC1 | inconclusive: 12.6 µM [inhibitor, partial curve, poor fit] |  |
| CCC(Oc1ccccc1-c1nnc(-c2ccccc2)o1)C(=O)Nc1ccc(C(C)=O)cc1 (centres undefined) |  | inactive: -0.7% |
| COC(=O)c1ccc(NC(=O)CSc2ccc(-c3sc(-c4ccccc4)nc3C)nn2)cc1 | inconclusive: 39.8 µM [activator, single point] |  |
| O=C(Nc1sc2c(c1C(=O)O)CCC2)c1cccs1 | inconclusive: 15.8 µM [inhibitor, partial curve] |  |
| COC(=O)c1cc2oc(C)cc2n1Cc1ccc(Br)cc1F | inconclusive: 25.1 µM [inhibitor, partial curve] |  |
| COc1ccc(C2CC(=O)N3CN(C4CCCCC4)CSC3=C2C#N)c(OC)c1 (centres undefined) | active: 25.1 µM |  |
| COc1cccc(N2CCN(C3CC(=O)N(c4ccc(C)c(Cl)c4)C3=O)CC2)c1 (centres undefined) | inconclusive: 22.4 µM [inhibitor, partial curve, poor fit] |  |
| COc1ccc(NC(=O)c2ccc(-c3ccc([N+](=O)[O-])cc3)o2)cc1 | active: 1.26 µM |  |
| O=[N+]([O-])c1cc(Cl)cc(/C=N/NC(=S)Nc2ccc(S(=O)(=O)N3CCOCC3)cc2)c1O | active: 10 µM |  |
| COc1ccc(S(=O)(=O)NCCc2nnc3ccc(SCC(=O)Nc4ccccc4C)nn23)cc1 |  | inactive: 1.04% |
| COc1ccc(-c2ccc(-c3noc(-c4ccccc4OC)n3)c(OC)n2)cc1 | inconclusive: 7.08 µM [inhibitor, partial curve] |  |
| CCc1ccc(-n2c(=O)c3c4c(sc3n(Cc3ccccc3C#N)c2=O)CCC4)cc1 |  | inactive: 12.8% |
| CCc1cc2ccc(C)cc2nc1SCC(=O)N1CCN(C(=O)c2ccco2)CC1 | inconclusive: 39.8 µM [inhibitor, single point] |  |
| O=C(Nc1cccc(NC(=O)C2CC3CCCC(C2)C3=O)n1)C1CC2CCCC(C1)C2=O (centres undefined) |  | inactive: -9.2% |
| COc1cc2c(cc1OC)CN(Cc1cc(=O)oc3c(C)c(C)ccc13)CC2 | inconclusive: 39.8 µM [inhibitor, single point] |  |
| CC1=NOC(=O)/C1=C\c1ccc(-c2ccc(Br)cc2C(=O)O)o1 | inconclusive: 14.1 µM [inhibitor, partial curve] |  |
| O=C(/C=C/c1ccc2c(c1)OCCCO2)c1ccc2ccccc2c1O | active: 3.16 µM |  |
| CC(=O)NNC(=S)NC(=O)c1ccccc1 |  | inactive: -4.91% |
| COC(=O)c1c(C)oc2ccc(N(C(=O)c3ccncc3)S(=O)(=O)c3ccc(OC)cc3)cc12 | inconclusive: 11.2 µM [inhibitor, partial curve] |  |
| O=C(NCc1ccccc1F)C1CCN(C(=O)c2sccc2-n2cccc2)CC1 |  | inactive: 0.894% |
| COCCn1nnnc1C(c1ccc(O)c(OC)c1)N1CCc2ccccc2C1 (centres undefined) | inconclusive: 35.5 µM [inhibitor, single point] |  |
| Cc1ccc(C(=O)c2c[nH]cc2-c2ccccc2)cc1 |  | inactive: 2.92% |

| Structure (SMILES) | Potency | activity, negative = inhibition |
| --- | --- | --- |
| COc1cc(/C=N/N=C2/C(=O)Nc3ccccc32)ccc1O | active: 11.2 µM |  |
| Cc1ccccc1OCCc1c(C)[nH]c(=S)[nH]c1=O |  | inactive: -7.53% |
| CCn1cc2nc(SCc3cc(C)ccc3C)n(CCc3ccccc3)c(=O)c2n1 | inconclusive: 20 µM [inhibitor, single point] |  |
| Cc1ccc(Oc2nnc(-c3ccccc3)c3ccccc23)cc1 | inconclusive: 39.8 µM [inhibitor, single point] |  |
| Cc1ccc(-n2nnc(-c3cc4ccccc4nc3Cl)n2)cc1 | inconclusive: 2.24 µM [inhibitor, single point] |  |
| COC(=O)[C@@H]1CC[C@H](C)[C@@H](c2ccc(C)cc2)N1C(=O)c1ccc(/C=N\OC[C@@H](O)[C@H]2O[C@H]3OC(C)(C)O[C@H]3[C@@H]2O)cc1 |  | inactive: -3.84% [at 11.5 µM] |
| CCOc1ccc2c(c1)C(c1ccc(C)cc1)=NNC(c1ccc(OC)cc1)=N2 | inconclusive: 12.6 µM [inhibitor, partial curve] |  |
| COc1ccccc1NC(=O)c1ccc(COc2ccc(C)c(C)c2)o1 | inconclusive: 10 µM [inhibitor, partial curve] |  |
| O=C(c1ccc2c3c(cccc13)CC2)C1CCCN(Cc2ccncc2)C1 (centres undefined) | inconclusive: 17.8 µM [inhibitor, partial curve] |  |
| Cc1cccc(N2CCN(S(=O)(=O)c3c(C)nc4scc(C)n4c3=O)CC2)c1C |  | inactive: -10.7% |
| CCOC(=O)N1CCC(N2CC34C=CC(O3)C(C(=O)O)C4C2=O)CC1 (centres undefined) |  | inactive: 7.53% |
| Clc1ccc(-c2nn3c(C4COc5ccccc5O4)nnc3s2)cc1 (centres undefined) | inconclusive: 6.31 µM [inhibitor, full curve, poor fit] |  |
| COc1ccc(C2=NN(c3nc4ccccc4s3)C(=O)/C2=C\N(C)C)cc1 | inconclusive: 14.1 µM [inhibitor, partial curve] |  |
| COc1ccccc1-c1ccc(/C=C2/C=C(C)OC2=O)o1 | inconclusive: 3.55 µM [inhibitor, partial curve] |  |
| C=CCOC(=O)c1cc(-c2ccc(/C=C3\C(=O)NC(=O)C(C#N)=C3C)o2)ccc1Cl | inconclusive: 15.8 µM [inhibitor, partial curve] |  |
| Cn1cc(CN(C(=O)Nc2ccccc2)C2CCCCC2)c2ccccc21 |  | inactive: -17.2% |
| COC(=O)c1sc(SC)c(-c2ccon2)c1C |  | inactive: -9.6% |
| COc1ccc(-c2nc3sc(CCNC(=O)c4ccco4)c(C)n3n2)cc1 | inconclusive: 3.55 µM [inhibitor, full curve, poor fit] |  |
| Nc1nnc(-c2cc3c(ccc4ccccc43)oc2=O)s1 | inconclusive: 1.58 µM [inhibitor, full curve] |  |
| O=C1c2oc3ccc(Cl)cc3c(=O)c2C(c2ccco2)N1CCN1CCOCC1 (centres undefined) | inconclusive: 35.5 µM [inhibitor, single point] |  |
| CCOc1ccc(C(=O)Nc2cc(C)on2)cc1 |  | inactive: -3.41% |
| Cc1ccc(-n2nc(-c3ccco3)cc2C(=O)NCc2cccnc2)cc1 | inconclusive: 25.1 µM [inhibitor, partial curve] |  |
| Cc1cc(=O)oc2cc(OCC(=O)N3CCc4ccccc4C3)ccc12 | inconclusive: 11.2 µM [inhibitor, partial curve] |  |

| Structure (SMILES) | Potency | activity, negative = inhibition |
| --- | --- | --- |
| O=S(=O)(c1cccc2c(Cl)cccc12)N1CCCNCC1 | inactive and inconclusive: 112 nM [inhibitor, full curve, poor fit] |  |
| COCCOC(=O)c1c(NC(=O)CNc2ccc(C)c(F)c2)sc(C(N)=O)c1C |  | inactive: -12.6% |
| COCC(C)n1c(C)cc(C(=O)COC(=O)c2ccc3c(c2)NC(=O)CS3)c1C (centres undefined) | inconclusive: 31.6 µM [inhibitor, single point] |  |
| CC(=O)Nc1ccc(S(=O)(=O)NC2=C(N3CCN(Cc4ccccc4)CC3)C(=O)c3ccccc3C2=O)cc1 | active: 15.8 µM |  |
| COc1cc(C(=O)NC2CCCC2)c(Br)c(OC)c1OC |  | inactive: -0.893% |
| CC1(C)CC(=O)C(C2C3=C(CC(C)(C)CC3=O)Oc3ccccc32)C(=O)C1 (centres undefined) | inconclusive: 35.5 µM [inhibitor, partial curve] |  |
| CCc1ccc(OCC(=O)N/N=C(\C)c2ccc(-n3ccnc3)cc2)cc1 | inconclusive: 0.178 µM [inhibitor, full curve] |  |
| COc1ccc(COC(=O)N/N=C2/C[C@@H](O)[C@@H](O)[C@@H]3[C@@H]4C(=O)N(Cc5ccccc5)C(=O)[C@H]4CC[C@H]23)cc1 |  | inactive: -9.17% [at 11.5 µM] |
| CCOC(=O)c1nc(N)c(=O)n(-c2ccccc2)n1 |  | inactive: -8.75% |
| Cc1ccc2oc(-c3cc(NC(=O)c4oc5ccccc5c4C)ccc3Cl)nc2c1 | inconclusive: 25.1 µM [inhibitor, single point] |  |
| O=C1N=c2ccc(Br)cc2=C1c1sc(=S)n(NS(=O)(=O)c2ccccc2)c1O | active: 11.2 µM |  |
| Cc1ccc2oc(=O)n(Cc3ccccc3Cl)c2c1 |  | inactive: -11.3% |
| COc1ccc(Cn2c(SCc3ccc(C)cc3)nc3cc(OC)c(OC)cc3c2=N)cc1Cl | inconclusive: 39.8 µM [inhibitor, single point] |  |
| CC(C)(C)OC(=O)N1CCC(c2c(C(=O)N3CCN(Cc4ccccc4)CC3)cnn2-c2ccc(Cl)cc2)CC1 |  | inactive: -11.9% |
| O=C(/C=C/c1ccc(OCc2cccc(Cl)c2)cc1)N1CCOCC1 |  | inactive: -17.3% |
| CSc1ccc(/C=N/NC(=O)c2ccc(C)c(C)c2)cc1 |  | inactive: 13.1% |
| CO[C@H]1COC(=O)[C@H](C)NC(=O)C/C=C\[C@@H](C)[C@H](OC)COC(=O)[C@@H](OCc2ccccc2)/C=C\[C@@H]1C |  | inactive: -8.47% [at 11.5 µM] |
| CCn1cc(C(=O)OCC(=O)c2cc(C)n(-c3ccc(OC(F)F)cc3)c2C)c(=O)c2ccc(C)nc21 | inconclusive: 8.91 µM [inhibitor, partial curve] |  |
| CS/C(N)=N/N=C/c1ccc([N+](=O)[O-])cc1 | inconclusive: 11.2 µM [inhibitor, partial curve] |  |
| O=[N+]([O-])c1ccc(Cl)cc1Sc1nc2ccccc2o1 | inconclusive: 14.1 µM [inhibitor, partial curve, poor fit] |  |
| Cc1ccc(-c2n[nH]c(=S)n2/N=C/c2cccs2)cc1 |  | inactive: -12.8% |
| N#CCCN1CCN(C(=S)c2ccc(-c3ccc(Cl)cc3)o2)CC1 | active: 20 µM |  |
| CCOc1nc(NCCO)nc(Nc2ccc([N+](=O)[O-])cc2)n1 | inconclusive: 17.8 µM [inhibitor, partial curve] |  |
